Reference: paper PMC6919601, “Identification of Plasmodium dipeptidyl aminopeptidase allosteric inhibitors by high throughput screening” (PLoS ONE, 2019)
The whole screen tested about 110,000 compounds, of which about 230 (0.21%) showed an effect of 50% or more. This is one part of the list.

target: DPAP1 (Plasmodium falciparum, UniProt Q8IIJ9); experiment: primary screen, percent inhibition; read by cleavage of a fluorogenic dipeptide substrate; higher = more effect of the substance; parameters: species or system P. falciparum D10 trophozoite lysates; single well
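Note: 30 min substrate incubation versus DMSO and 10 µM JCP410 controls.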

DPAP1, sequence (Q8IIJ9 whole entry, looked up): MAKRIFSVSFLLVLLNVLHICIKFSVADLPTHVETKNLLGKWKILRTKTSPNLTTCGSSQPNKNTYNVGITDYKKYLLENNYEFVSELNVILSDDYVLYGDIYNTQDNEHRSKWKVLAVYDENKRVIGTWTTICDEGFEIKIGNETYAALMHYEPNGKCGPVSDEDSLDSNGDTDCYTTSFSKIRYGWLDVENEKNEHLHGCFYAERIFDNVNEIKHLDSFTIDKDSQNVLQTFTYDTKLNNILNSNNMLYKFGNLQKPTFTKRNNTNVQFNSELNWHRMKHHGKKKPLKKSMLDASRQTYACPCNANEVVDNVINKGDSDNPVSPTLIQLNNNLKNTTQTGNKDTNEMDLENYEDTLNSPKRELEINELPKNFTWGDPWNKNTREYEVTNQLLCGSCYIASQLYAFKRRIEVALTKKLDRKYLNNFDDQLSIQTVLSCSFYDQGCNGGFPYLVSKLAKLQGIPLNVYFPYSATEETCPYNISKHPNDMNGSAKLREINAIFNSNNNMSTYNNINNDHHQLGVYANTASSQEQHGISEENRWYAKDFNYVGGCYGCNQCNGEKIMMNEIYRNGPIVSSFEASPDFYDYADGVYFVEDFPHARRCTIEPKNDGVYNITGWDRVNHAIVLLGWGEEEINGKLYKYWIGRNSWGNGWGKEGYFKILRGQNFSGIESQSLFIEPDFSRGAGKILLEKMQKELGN

Row | Structure (SMILES) | % Inhibition @ 10 uM [%]
1 | CC1CCCCN1C(=O)CCNS(=O)(=O)c1ccc2nc(O)ccc2c1 (centres unmarked) | -0.544
2 | c1cn(CCCNC2CCSC2)cn1 (centres unmarked) | -0.0908
3 | CC(NC(=O)CN1C(=O)c2ccccc2Sc2ncccc21)c1ccc2c(c1)OCCO2 (centres unmarked) | -3.6
4 | CCc1nnc(N2CCN(c3ncnc4c3cnn4-c3ccccc3)CC2)s1 | 0.962
5 | CN(C)CCNC(=O)c1cccnc1N1CCN(C)CC1 | -2.74
6 | O=C(NS(=O)(=O)c1cnccc1Sc1ccccc1Cl)c1ccc(Cl)cc1 | 0.408
7 | CCCC1=C(C(=O)OCC)C(c2cccc(Cl)c2)C(C#N)=C(N)O1 (centres unmarked) | -1.38
8 | Oc1ccc(NCc2c(Cl)cccc2Cl)cc1 | -2.16
9 | COCCN1C(=O)c2ccccc2C(C(=O)NC2CCCC(C)C2C)C1c1cn(C)c2ccccc12 (centres unmarked) | 5.1
10 | CC1CCN(c2nc3ccc(C(=O)NCCCN4CCN(Cc5ccccc5)CC4)cc3s2)CC1 | -2.37
11 | COc1ccc(C2(CNC(=O)C3COc4ccccc4O3)CCCC2)cc1OC (centres unmarked) | -1.93
12 | Cc1ccc(CN(C)C2CCN(C)CC2)s1 | 4.55
13 | CC(=O)Nc1sc(Cc2ccccc2)c(C)c1C(N)=O | 5.2
14 | OCCN(Cc1ccccc1)Cc1ccccc1Br | -0.0494
15 | CC(=O)N1CCN(Cc2ccccc2Cl)CC1 | 3.24
16 | Cc1ccc(S(=O)(=O)N2CCOCC2)cc1C(=O)N1CCOCC1 | 4.67
17 | CC(C)Oc1ccc(N2CC(C(=O)Nc3ccccn3)CC2=O)cc1 (centres unmarked) | 4.57
18 | O=C1OC(c2cccc3ccccc23)=N/C1=C/c1ccccc1Cl | -0.251
19 | CS(=O)(=O)N1CCC(C(=O)N2CCN(Cc3ccccc3)CC2)CC1 | -8.18
20 | COc1ccccc1Cn1ccn(Cc2cccc(C(F)(F)F)c2)c(=O)c1=O | -1.71
21 | N#Cc1nc(/C=C/c2cccs2)oc1N1CCOCC1 | -5.33

Row | Structure (SMILES) | % Inhibition @ 10 uM [%]
22 | CC(C)Cn1cc(NC(=O)NCCCc2ccccc2)c2ccccc2c1=O | -4.23
23 | CCCOc1ccc(C2C(C#N)=C(N)Oc3[nH]nc(C)c32)cc1OC (centres unmarked) | -2.56
24 | CCc1ccc(Oc2nc3c(C)cccn3c(=O)c2/C=C(\C#N)S(=O)(=O)c2ccc(C)cc2)cc1 | -1.43
25 | N#C/C(=C\Nc1ccccc1O)c1nc2ccccc2o1 | -1.37
26 | O=C(Cn1ccc2cc(S(=O)(=O)N3CCCCC3)ccc21)N1CCC2(CC1)OCCO2 | -6.42
27 | Cc1cc(NC(=O)Cn2ncc3c(=O)oc4ccccc4c32)no1 | -4.69
28 | CC1=C(C(=O)NC(C)c2ccccc2)C2(CCCCCC2)OC1=O (centres unmarked) | 0.233
29 | CN1CCN(C(=O)CN(c2ccccc2)S(=O)(=O)c2ccc(Cl)cc2)CC1 | -2.65
30 | CCCCCC(=O)NCCCCCC(=O)O | -0.415
31 | COCc1cc(C)nc2c1C(=O)NC(c1ccccc1C(=O)O)N2Cc1ccccc1 (centres unmarked) | -0.0108
32 | COc1cccc(NC(=O)c2ccc(NC(=O)C(C)C)cc2)c1 | -0.425
33 | CCCc1nc2ccccc2n1Cc1ccccc1OC | 0.913
34 | Cc1nc(-c2ccc(C(=O)N[C@@H](Cc3cc(Cl)c(O)c(Cl)c3)C(=O)NCC#N)cc2)cs1 | 17
35 | N#Cc1cc2c(nc1SCC(=O)Nc1nncs1)C1CCN2CC1 | 4.57
36 | CCOC(=O)N1CCN(c2c(N3CCN(c4ccccn4)CC3)c(=O)c2=O)CC1 | 1.93
37 | CCCNC(=O)CN(c1ccc(C)c(Cl)c1)S(=O)(=O)c1ccc(C)cc1 | -0.473
38 | CCCC(=O)Nc1ccc(S(=O)(=O)Nc2ccc(OCC)cc2)cc1 | -4.14
39 | CCOc1cccc(C(=O)Nc2nn3c(C)nnc3s2)c1 | -3.1
40 | COc1ccc2cc3c(N)c(C(=O)Nc4ccc(C(C)=O)cc4)sc3nc2c1 | -4.12
41 | CN(CC(=O)NCc1ccc(Cl)cc1)S(=O)(=O)c1cc(Cl)ccc1Cl | 3.89
42 | COc1ccc(CNCc2ccc(OC)cc2)cc1 | -3.35

Row | Structure (SMILES) | % Inhibition @ 10 uM [%]
43 | COc1ccc(-c2noc(CC(=O)N3CCN(c4ccccn4)CC3)n2)cc1 | 5.34
44 | CC(C)(CO)NC(=O)c1cccc(S(=O)(=O)N2CCOCC2)c1 | -0.597
45 | CCCn1c(=O)c(C(=O)Nc2ccccc2O)c(O)c2ccccc21 | -2.09
46 | CCC1CCCCN1C(=O)c1cccc([N+](=O)[O-])c1 (centres unmarked) | -0.292
47 | Cc1cc(=O)n2nc(N(C)CC(=O)NCC3CCCO3)sc2n1 (centres unmarked) | 3
48 | O=S(=O)(Oc1ccccc1Cl)c1ccc(Cc2ccc(S(=O)(=O)Oc3ccccc3Cl)cc2)cc1 | 4.82
49 | CCN(CC)C(=O)CN1C(=O)C2(Nc3ccccc3C(=O)N2c2ccc(Cl)cc2)c2ccccc21 (centres unmarked) | -8.43
50 | Cc1c2c(cc3c4c(c(=O)oc13)CCC4)CN(Cc1ccco1)CO2 | 0.895
51 | COc1cc(OC)cc(C(=O)Nc2ccc(S(=O)(=O)Nc3nccs3)cc2)c1 | 5.93
52 | Cc1ccc(C2CC(=O)NC(SCC(=O)Nc3ccccc3C(F)(F)F)=C2C#N)cc1 (centres unmarked) | -4.03
53 | COc1cccc(/C=C2/N=C(c3cccc(Cl)c3Cl)OC2=O)c1 | -4.38
54 | Cc1ccc(Nc2nc(-c3ccc(S(=O)(=O)N4CCOCC4)cc3)cs2)cc1C | 2.09
55 | COc1cc(NC(=O)c2cc3nc(-c4ccco4)cc(C(F)(F)Cl)n3n2)c(C(C)=O)cc1OC | -1.11
56 | CCN(C1CCCCC1)S(=O)(=O)c1ccc(NC(C)=O)cc1 | 2.37
57 | COc1ccc(CNC(=O)c2cc3c(=O)oc4ccc(C)cc4c3s2)cc1 | -3.68
58 | Cc1cccc(-c2nc3c(c(SCC(N)=O)n2)Cc2c(CO)cnc(C)c2O3)c1 | 1.68
59 | CCN(CC)C(=S)Nc1ccsc1C(=O)OC | 2.17
60 | CCN(Cc1ccccc1)C(=O)Cn1ncc2c3ccccc3n(Cc3ccccc3F)c2c1=O | -3.35
61 | COc1ccccc1NC(=O)Nc1cccc(Cl)c1 | -3.71
62 | COc1c(Cl)ccc(S(=O)(=O)N2CCN(c3ccccc3)CC2)c1Cl | 1.62
